# About 1,200 (0.4%) of roughly 300,000 compounds were called active. The inconclusive results got no clear call from the source; some entries with a clear call stand among them for comparison. The call rests on the fitted dose curve; in most records, active means well fitted inhibition curve with a large enough effect; inconclusive means small, poorly fitted or top-dose-only effect, or another doubt; inactive means no such curve, though single readings can be large or run the other way. Potencies beside an inconclusive call are fits to weak or partial responses and may not hold up.
# Biological target: Lysosomal alpha-glucosidase (Homo sapiens) (UniProt P10253)
# Experiment: qHTS Assay for Inhibitors and Activators of Human alpha-Glucosidase Cleavage of Glycogen;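 on activity change, negative = inhibition: 0% = full enzyme reaction and -100% = no-enzyme basal signal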
# Details: recombinant GAA, glycogen substrate, Amplex Red glucose oxidase fluorescence; activity change, negative = inhibition: at 76.4 µM (top of the series) unless noted
# Method in brief: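 qHTS, 1536-well; enzyme 4 nM final; cpd up to 77 uM; substrate bovine liver glycogen 30 ug; 50 mM citrate/phosphate pH 5.0, 0.01% Tween-20; 37 C, 40 min; Amplex Red detection 45 min RT; Hill fit → AC50.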
# Potency means the concentration at half of the fitted maximal effect.
SMILES,Potency,"activity change, negative = inhibition"
COc1cc(-c2nc3ccccn3c2/N=C/c2ccccc2)ccc1O,"inconclusive: 28 µM [inhibitor, single point]",–
CCOC(=O)c1cnc(-n2nc(C)cc2C)nc1NNc1cc(C)nc(-c2ccccc2)n1,"inconclusive: 11.2 µM [inhibitor, full curve]",–
O=C(c1ccc(Cl)cc1)N1CCC(O)(CSc2ccc(Cl)cc2)CC1,"inconclusive: 28.2 µM [activator, single point]",–
COc1cc(C2NC(=O)N(C)C3=C2C(=O)N(c2ccccc2)C3)ccc1O (stereo not given),"inconclusive: 14.1 µM [inhibitor, partial curve]",–
COc1ccc(-c2cnc(NCc3ccc(C)cc3)n2C)cc1,active: 10 µM,–
Cc1cc(=S)c2cccc(C)c2[nH]1,"inconclusive: 35.5 µM [inhibitor, single point]",–
NC(=S)NNc1ccc(Cl)c(Cl)c1,"inconclusive: 17.8 µM [inhibitor, partial curve]",–
O=C(NNC(=S)NC(=O)c1cccc([N+](=O)[O-])c1)c1ccc(O)cc1,"inconclusive: 50.1 µM [inhibitor, single point]",–
CC(CCc1ccccc1)NC(=O)CN(C)Cc1ccccc1F (stereo not given),"inconclusive: 35.5 µM [inhibitor, single point]",–
CCOc1ccc(N2C(=O)CC(N3CCc4ccccc43)C2=O)cc1 (stereo not given),active: 14.1 µM,–
COc1cc(-c2nc3cnccn3c2Nc2ccc3c(c2)OCCO3)ccc1O,active: 7.03 µM,–
CC(=O)Nc1ccc(NC(=O)Nc2sc3nc4n(c(=O)c3c2C)CCC(C)CC4)cc1 (stereo not given),"inconclusive: 20 µM [inhibitor, partial curve]",–
CC(C)COc1ccc(S(=O)(=O)NNC(=O)c2cc3ccccc3o2)cc1,"inconclusive: 39.5 µM [inhibitor, single point]",–
N#Cc1c(-c2ccccc2)nc(SCC(=O)N(c2ccccc2)c2ccccc2)[nH]c1=O,inactive,–
C/C(=N\N1CCN(Cc2ccc(Cl)cc2)CC1)c1ccc(F)cc1,"inconclusive: 14.1 µM [inhibitor, partial curve]",–
CCOc1ccc(/C=N/n2cc(-c3ccccc3)[nH]c2=S)cc1,"inconclusive: 20 µM [inhibitor, single point]",–
O=C(NNc1c(Cl)cncc1Cl)c1sccc1Cl,"inconclusive: 14.1 µM [inhibitor, partial curve]",–
Cc1ccc2nc(-c3c[nH]c4ccccc34)c(Nc3ccccc3)n2c1,"inconclusive: 28.2 µM [inhibitor, partial curve]",–
CCOC(=O)c1cc(-c2ccc(C)cc2)n(CC(=O)Nc2ccc(OC)c(Cl)c2)c1C,inactive,–
CCc1ccccc1NC(=O)C(=O)c1cc(C)n(-c2ccccc2F)c1C,inactive,–
Nc1cc(C(=O)O)ccc1N1CCCCC1,"inconclusive: 50.1 µM [inhibitor, single point]",–
CCOc1cccc(CNCCO)c1OCc1ccc(Cl)cc1Cl,inactive,–
COc1cc(/C=N/Nc2nc3ccccc3s2)ccc1O,"inconclusive: 25.1 µM [inhibitor, partial curve]",–
COc1ccc(NC(=S)NNC(=O)C(C)n2nc(C)c([N+](=O)[O-])c2C)cc1 (stereo not given),"inconclusive: 11.2 µM [inhibitor, partial curve]",–

SMILES,Potency,"activity change, negative = inhibition"
O=Cc1[nH]c2ccccc2c1N(C(=O)CCl)c1ccc([N+](=O)[O-])cc1,"inconclusive: 31.6 µM [inhibitor, partial curve, poor fit]",–
Cc1cc(C(C#N)c2ccccc2)n2ncnc2n1 (stereo not given),active: 24.9 µM,–
Cc1ccc(Cl)cc1N1CCN(C(=O)c2cn(C)c3ccc(S(=O)(=O)N4CCC(C)CC4)cc3c2=O)CC1,inactive,–
COc1ccc(NCc2nc3ccccc3n2CCOc2ccc(C)cc2)cc1,"inconclusive: 17.8 µM [inhibitor, partial curve]",–
N#Cc1nc(-c2ccco2)oc1NCc1cccnc1,"inconclusive: 14 µM [inhibitor, partial curve]",–
Cc1ccc(-c2cnc(NCc3ccc(C(C)C)cc3)n2C)cc1,"inconclusive: 25.1 µM [inhibitor, single point]",–
N#CC1=C(N)Nc2nc3ccccc3n2C1c1ccc(F)cc1 (stereo not given),"inconclusive: 24.9 µM [activator, partial curve]",–
COc1ccc(S(=O)(=O)Nc2c(C(=O)O)[nH]c3ccc(OC)cc23)cc1,"inconclusive: 11.2 µM [inhibitor, single point]",–
COc1cc(CNc2ccc3[nH]c(=O)[nH]c3c2)ccc1OCc1c(F)cccc1Cl,"inconclusive: 8.91 µM [inhibitor, full curve]",–
Nc1nc(C2CCOCC2)cs1,inactive,–
COc1ccc(S(=O)(=O)N(C(=O)c2ccco2)c2cc3sc(=O)oc3c3ccccc23)cc1,"inconclusive: 28.2 µM [inhibitor, partial curve]",–
CN1CCc2c(sc3c2c(NCc2ccco2)nc2nnnn23)C1,"inconclusive: 25.1 µM [activator, single point]",–
COc1ccc(Cc2c(C)nn(-c3nc(C)c(C(=O)Nc4ccc(C)cc4C)s3)c2C)cc1,inactive,–
COc1ccc2nc(NNC(=O)COc3ccccc3)sc2c1,active: 5.01 µM,–
CCOc1ccc(N2C(=O)CC(N(O)c3ccccc3)C2=O)cc1 (stereo not given),"inconclusive: 17.6 µM [inhibitor, partial curve]",–
CC1CCCC(C)N1/N=C/c1ccc(O)cc1 (stereo not given),"inconclusive: 3.55 µM [inhibitor, partial curve]",–
CC(C)NC[C@@H](O)c1ccc(O)c(O)c1,"inconclusive: 2.24 µM [inhibitor, full curve, poor fit]",–
Cc1ccc(OCCC(=O)N2CCN(c3ccc(O)cc3)CC2)cc1,active: 12.6 µM,–
Cc1nc2ccccc2nc1N/N=C/c1ccc(O)cc1,active: 25.1 µM,–
COc1ccc(CCN(C)C(=O)c2ccc(S(=O)(=O)Nc3ccccc3C)cc2)cc1OC,"inconclusive: 50.1 µM [inhibitor, single point]",–
c1csc(CNc2ccc3c(c2)OCCO3)c1,"inconclusive: 31.6 µM [inhibitor, single point]",–
Cc1ccccc1NC(=O)CSc1nnc(-c2ccco2)c(-c2ccco2)n1,–,inconclusive: 50.3% [activator]
COc1ccc2c(c1)c(-c1csc(N)n1)c(C)n2C,"inconclusive: 50.1 µM [inhibitor, single point]",–
Nc1ccc2oc(Cc3ccc(Cl)cc3)nc2c1,inactive,–

SMILES,Potency,"activity change, negative = inhibition"
O=C1C(NS(=O)(=O)c2ccc(Cl)cc2)=C(N2CCCCC2)C(=O)c2ccccc21,"inconclusive: 35.5 µM [inhibitor, single point]",–
COc1cccc(CNc2ccccc2O)c1OCc1ccccc1F,"inconclusive: 39.8 µM [inhibitor, partial curve]",–
Cc1nccn1CC(=O)N/N=C/c1ccc(O)c(O)c1,"inconclusive: 1.78 µM [inhibitor, full curve]",–
COc1ccc(N2CCN(Cc3nc(N)nc(N4CCCc5ccccc54)n3)CC2)cc1,"inconclusive: 7.94 µM [inhibitor, full curve]",–
S=C(Nc1ccccc1)Nc1ccc2cn[nH]c2c1,"inconclusive: 50.1 µM [inhibitor, single point]",–
COc1cccc(CNc2ccc3[nH]c(=O)[nH]c3c2)c1OCc1ccc(F)cc1,"inconclusive: 6.31 µM [inhibitor, partial curve]",–
COCCN=c1scc(-c2ccccc2)n1/N=C/c1c[nH]c2ccccc12,inactive,–
COc1ccccc1C1=Nc2cccc3cccc(c23)N1,active: 17.6 µM,–
COc1ccc(NC(=S)NCc2ccc(Cl)cc2)c(OC)c1,"inconclusive: 15.8 µM [inhibitor, partial curve]",–
COc1cc(/C=N/NC(=O)c2ccc(-n3cccc3)cc2)ccc1O,"inconclusive: 50.1 µM [inhibitor, single point]",–
O=C(CSCc1cnn(-c2ccccc2)c1-n1cccc1)NCc1ccccc1Br,inactive,–
CCC1(CC)Cc2ccccc2C2=C(C(=O)N3CCCCC3)C(=O)C(=O)N21,inactive,–
COc1ccc(OC)c(NC(=O)CSc2nncc3ccc(OC)c(OC)c23)c1,"inconclusive: 28.2 µM [inhibitor, partial curve, poor fit]",–
C#CCN(Cc1ccco1)C(=O)c1cc(COc2ccc(F)cc2Cl)on1,"inconclusive: 22.4 µM [inhibitor, partial curve]",–
CC1=C(C(=O)OC(C)C)C(c2cccs2)n2ncnc2N1 (stereo not given),"inconclusive: 28.2 µM [activator, partial curve, poor fit]",–
CCOc1cc(/C=C2/NC(=O)N(CC(=O)OC)C2=O)ccc1O,"inconclusive: 1.4 µM [inhibitor, partial curve]",–
c1ccc(Nc2c(-c3ccco3)nc3ccccn23)cc1,"inconclusive: 12.6 µM [inhibitor, partial curve]",–
COC(=O)CNC(=O)COC(=O)/C=C/c1ccc2ccccc2n1,–,inconclusive: 32.2% [activator]
COc1ccc(C(=O)NNC2=CC(=O)CC(C)(C)C2)cc1OC,"inconclusive: 10 µM [inhibitor, partial curve]",–
CCn1c(=O)n(CC)c2cc(N3CCCC3)c(NC(=O)c3cccc(Cl)c3)cc21,"inconclusive: 50.1 µM [inhibitor, single point]",–
COc1ccc(C(c2c(O)nc(SC)n(C)c2=O)c2c(O)nc(SC)n(C)c2=O)cc1O,"inconclusive: 14 µM [inhibitor, partial curve]",–
CC(=O)c1c(C)[nH]c(=S)c(C#N)c1-c1ccc(F)cc1,"inconclusive: 35.5 µM [inhibitor, single point]",–

# — PubChem BioAssay AID2100 (National Center for Advancing Translational Sciences (NCATS), 2009)
